The results in this text go back to PMC12136788.

The labels stand for the following.
T1: UNK ZnF1-3 (human, UniProt Q9C0B0 31-174)
T1 sequence: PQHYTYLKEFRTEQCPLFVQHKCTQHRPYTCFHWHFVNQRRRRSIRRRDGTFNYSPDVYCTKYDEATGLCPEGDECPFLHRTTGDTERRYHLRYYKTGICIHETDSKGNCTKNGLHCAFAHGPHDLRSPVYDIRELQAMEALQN

B1: chr16:18151368:18151369:+_ENSMUSG00000043811_ENSMUST00000059589|mus_hu|FALSE|FALSE (ssRNA)
RNA: GGGAGUUCUACAGUCCGACGAUCGGAGACGGUCGAGGCUGUGCAGCCCACGGAAGGCGCGCUCGGGCACGCUGGAGAUGCGGUUGCCGUGCAGGAAGAGGUGUGUGAGGUUGCCCAGGUCGCGGAAGGUGUCAUCAGGCAGUGCAACAGAGGAUUGAGCAUCA
B2: chr22:32894459:32894460:+_ENSG00000100225_ENST00000397426|hu_mus|FALSE|FALSE (ssRNA)
RNA: GGGAGUUCUACAGUCCGACGAUCCCAAAUUGGUCACAGGAAUGGCAGCCGGCUGUCAGCUGACCUACCCCUGCCGGGUCUGAAGGGAAAUCUGUUGUUGGGGAUAGCUCUUCCUGGCAAGAGGGAGUGAGGUCCUGGAAGUGGCAACAGAGGAUUGAGCAUCA
B3: chr4:97781865:97781866:+_ENSMUSG00000028565_ENSMUST00000075448|mus_mus|motif|central (ssRNA)
RNA: GGGAGUUCUACAGUCCGACGAUCUUGACCUAAACUGCCUUGGUCGGUGUUGCAUUUGCUUCCUGCUUGAUGACAACGGAACGGCAAUUUCCUGCUGCUUUCUGGACAAUGAAGCAUGAGCAGACCAGAACUUGGUGUACUGACCAACAGAGGAUUGAGCAUCA
B4: chr5:143849297:143849298:-_ENSMUSG00000045078_ENSMUST00000053498|mus_hu|FALSE|FALSE (ssRNA)
RNA: GGGAGUUCUACAGUCCGACGAUCUACAUUCAGAUCAUAAUAAUUCUUAAAAUGAAUUAUUUCCUCAAUAAACCCAUUUGCUACAUCUGGAAAUCUUGCUUCCGUUUCUUUCACUAGUAGUUCAACGAGCUCUUGAUCUACCUCCAACAGAGGAUUGAGCAUCA
B5: chr9:79603372:79603373:-_ENSMUSG00000032330_ENSMUST00000034881|mus_mus|FALSE|FALSE (ssRNA)
RNA: GGGAGUUCUACAGUCCGACGAUCCACGUGAAGACUGGGAUGACGACAUUAGUUCUGCUUCUUGGGAAAUGCAGCCAUAGCUAACAGAUAGAUGGCAUAGGCUGUGCCACCAAGCGUCAGAGCCAUUGUGGCUCUGUAGAGGAGCAACAGAGGAUUGAGCAUCA
B6: chr16:94664741:94664742:+_ENSMUSG00000040785_ENSMUST00000117648|mus_hu|mus_mus_mus_hu_False|28_88 (ssRNA)
RNA: GGGAGUUCUACAGUCCGACGAUCUGGUACUGAUCUUGGUAGCUGAUACUCAGAAGAAAGGCUGGCCAAGGGUGUAUAUAUGCUGGUGUACUGGGGCAAACCUGGUACCAUGUUAAUGUAUGCUGGCGGUGUCUGGGUGAUAUCCAACAGAGGAUUGAGCAUCA
B7: chr1:39494564:39494565:+_ENSG00000168653_ENST00000372967|hu_hu|hu_hu_hu_mus_True|48_108 (ssRNA)
RNA: GGGAGUUCUACAGUCCGACGAUCAUGUGCACGUCUCAUCGUUUUGUACCGAAGCAAGCACUCUUCGAAGUCAUCGAACUCUAUCUUGCACUCUUUCUUCGCCCGGGUCCCACCGAUCCCGUGUGCACACUCUAUCCACUCUUUCAACAGAGGAUUGAGCAUCA
B8: chr2:198351390:198351391:-_ENSG00000144381_ENST00000345042|hu_hu|hu_hu_hu_mus_False|58_68 (ssRNA)
RNA: GGGAGUUCUACAGUCCGACGAUCUCAUUCCCACCCUCCACAGAAAGGCUGCUUCUGAACUCUCAUGGUGGUGGCAAGCACUAAAAUCCUGAUGCUCACAGAACAGUAGAGAUGCCUCAGUGAUUUAAGUUGAAAGCAGGACACCAACAGAGGAUUGAGCAUCA
B9: chr18:55283160:55283161:-_ENSG00000134440_ENST00000256854|hu_mus|FALSE|FALSE (ssRNA)
RNA: GGGAGUUCUACAGUCCGACGAUCGUUCUUCAUCUGUGACUUAGAAAUAACAUCCCAUCUCUCAUUUUCCUUUUGUGAGUCCACAUAAAUGGUGGGAAAUGGCUCUUUUCCAACUGUCAUCAAAGCCUUUAGGCCUGUUUUAAACAACAGAGGAUUGAGCAUCA
B10: 4757594_4757714_562_5pUTR_ENSMUSG00000044674_ENSMUST00000054294|mouse|control|control (ssRNA)
RNA: GGGAGUUCUACAGUCCGACGAUCCUCCUCGGCGCGGAUUGACUGGGACGGGCAGCGGCGCGGCGGGUGGUGGCUCCCACUGUGAUCCGGGAGAGCUGGUCGCCCGUGCCCUCCGUCGGGGUGCGGCCGCUCUCUGCCCGCUCCCAACAGAGGAUUGAGCAUCA
B11: chr1:163117127:163117128:-_ENSG00000143248_ENST00000313961|hu_mus|hu_hu_hu_mus_False|18_18 (ssRNA)
RNA: GGGAGUUCUACAGUCCGACGAUCUGCUACAAAGGAUGUAACUCAACUCACAGGGCAACUUUUGGAAGCCUGACCAGAUGACUACUUGAUUAGCUCCUUAUAAAAUUCAGAGCGCACAAAGCGAGGCAGAGAAUCCUUCUCCAUCAACAGAGGAUUGAGCAUCA
B12: 24804945_24805959_3534_CDS_ENSG00000090905_ENST00000315183|human|control|control (ssRNA)
RNA: GGGAGUUCUACAGUCCGACGAUCAAUCUCCACAUCCUCUUCCUCUUCCCAGCCAGUGGGGCGAUUUCCAGGCAAUGGCAUAUCAUCACCACACCAGCCAUCUUGCAUAGAUUUUGGCCCAGAUUUGCUUAAUGCUUGUGGACCCAACAGAGGAUUGAGCAUCA
B13: chr16:22092171:22092172:+_ENSG00000185716_ENST00000542527|hu_hu|motif|central (ssRNA)
RNA: GGGAGUUCUACAGUCCGACGAUCCAAUUUAGACAUUCAUCAGCCUGGUAAACAAACUUUGCCAGCAAAUAGAAGUCCGGCGGUUGUAAAGAAAAUUGAUAAGACAAAAAGUACAUAUGAUGACCCAACUACUGUGUUGUUGGGCAACAGAGGAUUGAGCAUCA
B14: 125022421_125022629_1965_CDS_ENSMUSG00000014444_ENSMUST00000067252|mouse|control|control (ssRNA)
RNA: GGGAGUUCUACAGUCCGACGAUCGGUGACCAGCUCCCCCAGGCUCCGCAGCAGCGUCUGGGUCUGUGUGGGCUCAGUGUCGGCCACCGUGACCUCCAAAAGCGCCGCAGGCACCUUUUGCUUCUUCAGCAGCUUCUCCUUCACCAACAGAGGAUUGAGCAUCA

Some of the results follow.

The target of the assay is T1, UNK ZnF1-3. Briefly: nsRBNS (natural sequence RNA bind-n-seq); RBNS binding buffer (assumed for nsRBNS): 25 mM Tris pH 7.5, 150 mM KCl, 3 mM MgCl2, 0.01% Triton X-100, 500 ug/ml BSA, 20 U/ml SUPERase-In, 4 C; UNK is unkempt and MSI1 is Musashi-1; names of the RNAs are library labels; protein concentration not given here; high values mean tight binding.
The molecule B1 yielded a binding signal of 1.46 enrichment R.
Next, B2: 1.04 enrichment R; B3: 0.863 enrichment R; B4: 0.511 enrichment R.
The result for B5 reads 1.06 enrichment R; that for B6, 1.05 enrichment R; that for B7, 0.603 enrichment R.
The result for B8 reads 1.28 enrichment R; that for B9, 0.621 enrichment R.
Molecule B10 displayed a binding signal of 0.339 enrichment R.
Next, B11: 1.07 enrichment R; B12: 0.793 enrichment R; B13: 1.07 enrichment R.
Turning to B14, the binding signal amounted to 0.578 enrichment R.
